# Test results taken from article PMC6919601, “Identification of Plasmodium dipeptidyl aminopeptidase allosteric inhibitors by high throughput screening” (PLoS ONE, 2019).
# Among all 110,000 compounds or so, about 230 (0.21%) showed an effect of 50% or more. Some of the results follow.
# Target: DPAP1 (Plasmodium falciparum, UniProt Q8IIJ9)
# Assay: primary screen, percent inhibition; read by cleavage of a fluorogenic dipeptide substrate; higher = more effect of the substance
# Design: species or system P. falciparum D10 trophozoite lysates; single well
# 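Further: 30 min substrate incubation versus DMSO and 10 µM JCP410 controls.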
# DPAP1, sequence (Q8IIJ9 whole entry, looked up): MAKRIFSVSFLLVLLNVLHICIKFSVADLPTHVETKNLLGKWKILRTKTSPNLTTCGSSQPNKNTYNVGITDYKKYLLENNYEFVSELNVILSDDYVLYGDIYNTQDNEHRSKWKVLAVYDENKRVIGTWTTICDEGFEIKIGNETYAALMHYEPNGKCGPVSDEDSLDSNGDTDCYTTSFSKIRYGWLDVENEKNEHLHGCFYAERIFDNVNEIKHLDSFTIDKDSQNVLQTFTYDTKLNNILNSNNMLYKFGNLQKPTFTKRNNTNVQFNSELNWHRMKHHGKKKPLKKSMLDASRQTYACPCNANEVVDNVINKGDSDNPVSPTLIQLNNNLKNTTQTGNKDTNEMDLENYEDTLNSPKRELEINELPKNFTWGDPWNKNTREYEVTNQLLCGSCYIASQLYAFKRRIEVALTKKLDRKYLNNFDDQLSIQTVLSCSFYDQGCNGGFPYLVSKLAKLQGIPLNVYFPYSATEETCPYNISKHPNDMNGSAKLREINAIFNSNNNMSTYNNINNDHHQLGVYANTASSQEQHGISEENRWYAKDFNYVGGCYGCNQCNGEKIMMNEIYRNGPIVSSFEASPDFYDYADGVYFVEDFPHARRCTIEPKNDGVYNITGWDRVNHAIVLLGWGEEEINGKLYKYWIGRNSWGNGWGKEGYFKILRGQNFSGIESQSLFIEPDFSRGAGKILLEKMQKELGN
row,Structure (SMILES),% Inhibition @ 10 uM
1,COc1ccccc1CNS(=O)(=O)c1ccc(-c2cc(C)no2)cc1,-2.92%
2,Cc1ccc(Cn2c3ccccc3c3nnc(NCCCN4CCCC4=O)nc32)cc1,-2.79%
3,Cc1ccc(S(=O)(=O)N(C)Cc2nc(-c3ccc(Cl)cc3)no2)cc1,-5.15%
4,COc1ccc(-c2cc(C(=O)NC(C)(C)CO)on2)cc1OC,-0.0401%
5,Cc1oc2ccc(O)cc2c1C(=O)c1ccc(F)cc1,-0.28%
6,COc1ccc2c(c1)C(C(C(C)=O)C(=O)c1ccc(C)cc1)c1ccccc1O2 (centres unmarked),3.93%
7,COc1ccc(C2(C(=O)Nc3cc(C)ccc3OC)CCOCC2)cc1,-4.71%
8,NS(=O)(=O)c1ccc(NC(=O)c2ccc(N3C(=O)CCC3=O)cc2)cc1,-3.95%
9,CC(C)CC(NC(=O)C1CCNCC1)C(=O)NC(CCc1ccccc1)CCS(=O)(=O)c1ccc2ccccc2c1 (centres unmarked),-5.64%
10,CCOC(=O)c1cc2c(=O)n3cccc(C)c3nc2n(CCOC)c1=N,1.97%
11,COc1ccc(C2CC(c3ccc(Br)cc3)=NN2S(C)(=O)=O)cc1 (centres unmarked),0.13%
12,O=C(O)CC(CC(=O)Nc1nn[nH]n1)c1ccccc1 (centres unmarked),-3.23%
13,Cc1ccc2cnn(CCCC(=O)NCc3ccccc3)c2c1,-2.88%
14,Cn1c(=O)c2c(nc3n(-c4ccccc4)c(-c4ccc(F)cc4)cn23)n(C)c1=O,3.9%
15,[O-]/[N+](=C\c1cccc(Br)c1)c1ccccc1,4.41%
16,Nc1ncnc2ncc3c4ccccc4[nH]c3c12,2.17%
17,Cc1ccc2c(Sc3ccc(Cl)cc3)c(C(=O)NCCN3CCOCC3)[nH]c2c1,-2.78%
18,COc1cccc(C(=O)Nc2ccc(OCC(=O)c3ccc(F)cc3)cc2)c1,2.64%
19,COc1ccc(-c2csc(NC(=O)c3cc4ccccc4oc3=O)n2)c(OC)c1,4.67%
20,C=CCNC(=O)CN(c1ccccc1OCC)S(C)(=O)=O,-1.26%
21,O=C(Nc1ccccc1C#Cc1ccccc1)C(c1ccccc1)c1ccccc1,2.76%
22,Cc1ccc(-c2ccc(=O)n(C(C)C(=O)c3ccc(C)c(C)c3)n2)cc1 (centres unmarked),2.2%
23,CCCN1CCC(N[C@H]2CC[C@H](O)CC2)CC1,-4.14%
24,COc1cccc(OCC(=O)Nc2cc(C)on2)c1,-10.7%
25,COc1ccccc1C(=O)Nc1ccccc1N1CCN(C(=O)c2ccccc2)CC1,2.5%
26,CC(=O)c1c(-c2ccccc2)nc2n(CCN3CCCCC3)c3ccccc3n12,-2.99%

row,Structure (SMILES),% Inhibition @ 10 uM
1,CCc1c(C#N)c(N)nc(S)c1C#N,74.5%
2,CCn1cc(C(=O)NCCOC)c(=O)c2ccc(C)nc21,2.79%
3,O=C(CCN1CCN(C(c2ccccc2)c2ccccc2)CC1)c1ccccc1,-4.43%
4,Cc1cccc(OCCn2c(C)nc3cc(C)c(C)cc32)c1,-1.11%
5,CC1(c2ccccc2)CC(C)(C)N(C(=O)c2cccc(F)c2)c2ccccc21 (centres unmarked),-1.85%
6,CC1=CC(=O)C(Cl)=C(C)/C1=N\S(=O)(=O)c1ccc(C)cc1,1.67%
7,CC1(C)[C@H]2CC=C(CN3CCCC(O)C3)[C@@H]1C2 (some centres unmarked),0.217%
8,OCCN1CCN(Cc2ccc(Cl)cc2)CC1,0.135%
9,CCCCN(C)Cc1ccccc1[N+](=O)[O-],2.7%
10,N#CC1=C(N)Oc2c(c(O)nc3ccccc23)C1c1cccs1 (centres unmarked),4.51%
11,CC1CCN(C(=O)Cn2cnc3c2c(=O)n(C)c(=O)n3C)CC1,-0.116%
12,Cc1ccc(NS(=O)(=O)c2ccc(Cl)cc2)cc1Cl,-1.48%
13,CC1=C(c2ccc(C)cc2)S(=O)(=O)N=C1NCc1cccc(Cl)c1,0.623%
14,Nc1nnc(-c2nonc2N)s1,1.72%
15,CCC1(c2ccccc2)C(=O)c2ccccc2C1=O,4.16%
16,O=C(NC1(C(F)(F)F)C(=O)Nc2c1c(=O)[nH]c(=O)n2-c1ccc(F)cc1)c1cccc(Cl)c1 (centres unmarked),2.49%
17,CCOC(=O)N1CCC(n2c(SCc3ccccc3Cl)nc3ccsc3c2=O)CC1,-3.28%
18,O=C1C=CC(=NS(=O)(=O)c2cccs2)C=C1,6.64%
19,CC(C)CCN(C)C1CCN(S(=O)(=O)c2cccc(C(F)(F)F)c2)CC1,3.66%
20,CC(C)(C)C(=O)/N=C1\SC2CS(=O)(=O)CC2N1Cc1ccc(Cl)cc1 (centres unmarked),-2.92%
21,Cc1c(CC(=O)NCc2ccco2)c(=O)oc2cc(O)c(Cl)cc12,-0.808%
22,Cn1nc(-c2ccc(Cl)cc2)c2cc(C(=O)N3CCN(Cc4ccc5c(c4)OCO5)CC3)sc21,3.77%
23,CCN(CC)S(=O)(=O)N1CCC(C(=O)NC(C)CCc2ccccc2)CC1 (centres unmarked),1.16%
24,CCOC(=O)c1c(C)c(-c2ccccc2)n(CC(=O)N2CCN(Cc3ccccc3)CC2)c1C,0.0579%
25,CCNCC(=O)N1c2ccccc2CCc2ccc(NC(=O)OCC)cc21,3.06%
26,O=C(NCc1ccccc1)c1csc2c1CCCC2,3.54%

row,Structure (SMILES),% Inhibition @ 10 uM
1,Cn1c(=O)c2c(nc3n(-c4ccccc4)c(-c4ccccc4)cn23)n(C)c1=O,2.43%
2,CN1CCc2nc(SCc3ccccc3Br)c(C#N)cc2C1,-0.864%
3,COCCNc1nc2c(S(=O)(=O)c3ccccc3)nnn2c2ccsc12,-0.256%
4,Cn1cc(CCC(=O)NCc2ccccn2)c2ccccc21,3.28%
5,Cc1nnc(NC(=O)CSc2nnc(CNC(=O)c3cccs3)o2)s1,-3.39%
6,COC(=O)C1=CN(Cc2ccc(F)cc2)C=C(C(=O)OC)C1c1ccc(O)cc1,1.86%
7,Cc1cc(C)c(C#N)c(SCC(=O)Nc2cccc(C)c2C)n1,1.01%
8,O=[N+]([O-])c1ccc(N2CCN(C3Cc4ccccc4C3)CC2)cc1,1.43%
9,COc1ccc2c(c1)C1=NN(C(C)=O)C(c3ccc([N+](=O)[O-])cc3)C1CC2 (centres unmarked),1.63%
10,O=C(Nc1nc2ccccc2n1CCN1CCOCC1)c1ccccc1F,-6.06%
11,O=S(=O)(Cc1nn[nH]n1)c1ccccc1,2%
12,Brc1ccc(Oc2ncnc3sc4c(c23)CCCC4)cc1,-2.28%
13,O=C(CSc1ncnc2sc3c(c12)CCC3)Nc1ccccc1,-4.01%
14,Cc1ccc2[nH]c(C3=C(N)N(CCCN4CCOCC4)CC3=O)nc2c1,-2.99%
15,Cc1ccc(C(=O)Nc2ccccc2)cc1S(=O)(=O)N1CCCCCC1,-6.65%
16,Cc1ccc(OCC(=O)Nc2ccc(F)cc2)c(C)c1,-6.74%
17,Cc1ccnc(NC2c3ccccc3C(=O)N2Cc2ccccc2Cl)c1 (centres unmarked),4.01%
18,COc1ccccc1-c1cc(-c2ccccc2)nc(SCC(=O)c2ccccc2)c1C#N,2.36%
19,CC(C)(O)C#Cc1ccc(C(=O)N2CCC(Cc3ccccc3)CC2)cc1,-4.93%
20,COc1cccc(CN2CCN(Cc3ccncc3)CC2)c1OC,8.09%
21,O=C(Cc1ccccc1)n1nc(-c2ccco2)nc1NCc1ccccc1Cl,-6.98%
22,NC(=O)c1ccccc1NC(=O)c1ccc(Cl)cc1,-3.24%
23,COc1ccc(-c2nnc3n2C2(CCCCC2)Cc2ccccc2-3)cc1,2.22%
24,COc1cc(NC(=O)c2cccc(C)c2)c(OC)cc1Cl,-1.93%
25,O=C(NCc1ccc(Cl)cc1)c1csc2c1CCCC2,-5.05%
26,COc1ccc(C(=O)N/C(=C\c2ccc3c(c2)OCO3)C(=O)NCCO)cc1,-2.68%

row,Structure (SMILES),% Inhibition @ 10 uM
1,Clc1ccc(OCc2nc3ccccc3[nH]2)c(Cl)c1,-1.69%
2,CCN(CC)C(=O)Cn1c2ccccc2c2cnnc(O)c21,1.38%
3,COC(=O)c1ccc(CN2CCOCC2)cc1,1.57%
4,CCCCOc1ccc(C2C(C#N)=C(N)Oc3c2c(=O)oc2ccccc32)cc1OC (centres unmarked),10.8%
5,O=C(O)C1CSC(c2ccccc2Cl)N1C(=O)c1cccc(Cl)c1 (centres unmarked),2.79%
6,Cc1ccc(NC(=O)c2ccc(C(C)(C)C)cc2)nc1,-3.92%
7,O=C1CC(Cc2ccccc2)NC(NC(=O)c2ccccc2)=N1 (centres unmarked),1.02%
8,COc1cc2c(cc1OC)C1CC(=O)C(CC(C)C)CN1CC2 (centres unmarked),-1.82%
9,O=C(Cn1nnnc1-c1ccc(Cl)cc1)NCc1ccccc1C(F)(F)F,-2.84%
10,CC1=C(Cl)C(=O)C(C(C)C)=C/C1=N\S(=O)(=O)c1ccccc1,-2.87%
11,COc1cccc(OCC(O)CN2CCC(Cc3ccccc3)CC2)c1 (centres unmarked),4.67%
12,Cc1cc(C)cc(OCC(=O)Nc2ccc(CN3CCOCC3)cc2)c1,-4.97%
13,CCC(C)NC(=O)C1c2ccccc2C(=O)N(C)C1c1c[nH]c2ccccc12 (centres unmarked),-5.88%
14,Cc1ccc(S(=O)(=O)NCCc2ccc(S(N)(=O)=O)cc2)cc1,-0.968%
15,COc1cccc2c1CCC(NC(C)=O)C2=O (centres unmarked),-2.76%
16,COc1cccc(C2c3c(oc4ccccc4c3=O)C(=O)N2Cc2ccc(C)cc2)c1 (centres unmarked),6.52%
17,COc1cc(/C=C2\SC(=O)N(Cc3ccc(F)cc3)C2=O)ccc1O,-3.87%
18,CCC1(C)Cc2c(sc3nc(S)nc(N)c23)CO1 (centres unmarked),62.9%
19,O=C(COc1ccc(Cl)cc1)NCCC12CC3CC(CC(C3)C1)C2,4.85%
20,Cc1cc(C)c(C)c(S(=O)(=O)NCc2ccc(C(=O)N3CCCC3)cc2)c1C,-3.09%
21,Cc1nc2ccc(S(=O)(=O)NCC(=O)NCCN3CCCCC3C)cc2s1 (centres unmarked),2.37%
22,CCCCN(CCCC)c1nc(O)nc2[nH]cnc12,-0.636%
23,CCc1cc(C(=O)O)c(NC(=O)c2ccccc2)s1,3.61%
